# Measurements as given in the supplement of paper PMC8728848.
# Some of the results follow.
# B1: PX14367B-bvu-516-23-516 (Bacteroides vulgatus) (protein)
# chain: LDTIPTTYVDAGSVFGKTGDAEKVLNGGWNYLMETFNSYANPGYGAMLRANDAMGSDVVLNSKYGFRTHNEFSAIYGKGGTNTLSWLLAYRVINDCNGVLDNIDAAEGTQADRNRIKGQALALRGFLYLHLASCYSFAIDKDPDAVCAPIYTQSTDETIAAEGKPASSVSEVYAQSINDLEEALELIPETYVRDAKHKIDNEVVLGILSRACLYARQWEKAKTYSDKLLAKDNYLMTESEYKAGFNSVDNKEWIWGHAQTNDQSNASYQFHYLDTTTKGSYYYSFNVDPYFRDLFEDGDYRKEMLFWATDPGADVESAAYVWMRNSKFRFRDIENQLGDIVLMRVAEIYLINAEAKAHLNDPDAINKLNDLKTARGAKTIHTNLSQQDLLETIWLERRKELWGEGFSLIDIIRNQQTVVRNAYPEGPIDYIYTDENGQTHTLKKKTQGHRFFNFPDKSAFCPNSKYYLYRITDSEELANKNLYKDHPKLSIYTK
# Legend:
# Test in all cases: glycan array binding signal (z-score within array); higher = stronger binding
# Details in all cases: glycan notation: IUPAC condensed, linker removed
# [1] = target: Gal(b1-3)GlcNAc(b1-6)[Gal(b1-3)]GalNAc
# In short: (§1)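 From the Consortium for Functional Glycomics database, 3228 arrays were curated, keeping only those whose protein sequence was available. Binding is given as a within-array Z-score averaged across arrays sharing a protein sequence and across linkers. Negative Z-scores can be read as non-binding.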
# Gal(b1-3)GlcNAc6S = target: Gal(b1-3)GlcNAc6S
# In short: as §1
# [2] = target: Gal(b1-3)[Fuc(a1-4)]GlcNAc
# In short: as §1
# [3] = target: Gal(b1-3)[Fuc(a1-4)]GlcNAc(b1-2)Man
# In short: as §1
# [4] = target: Gal(b1-3)[Fuc(a1-4)]GlcNAc(b1-2)Man(a1-3)[Gal(b1-3)[Fuc(a1-4)]GlcNAc(b1-2)Man(a1-6)]Man(b1-4)GlcNAc(b1-4)[Fuc(a1-6)]GlcNAc
# In short: as §1
# [5] = target: Gal(b1-3)[Fuc(a1-4)]GlcNAc(b1-3)Gal(b1-3)[Fuc(a1-4)]GlcNAc
# In short: as §1
# [6] = target: Gal(b1-3)[Fuc(a1-4)]GlcNAc(b1-3)Gal(b1-4)[Fuc(a1-3)]GlcNAc
# In short: as §1
# [7] = target: Gal(b1-3)[Fuc(a1-4)]GlcNAc(b1-6)GalNAc
# In short: as §1
# [8] = target: Gal(b1-3)[GlcNAc(b1-6)]GalNAc
# In short: as §1
# [9] = target: Gal(b1-3)[Neu5Ac(a2-6)]GalNAc
# In short: as §1
# [10] = target: Gal(b1-3)[Neu5Ac(a2-6)]GlcNAc(b1-4)Gal(b1-4)Glc
# In short: as §1
# [11] = target: Gal(b1-3)[Neu5Ac(b2-6)]GalNAc
# In short: as §1
# Gal(b1-4)Gal = target: Gal(b1-4)Gal
# In short: as §1
# [12] = target: Gal(b1-4)GalNAc(a1-3)[Fuc(a1-2)]Gal(b1-4)GlcNAc
# In short: as §1
# [13] = target: Gal(b1-4)GalNAc(b1-3)[Fuc(a1-2)]Gal(b1-4)GlcNAc
# In short: as §1
# Gal(b1-4)Glc = target: Gal(b1-4)Glc
# In short: as §1
# Gal(b1-4)Glc6S = target: Gal(b1-4)Glc6S
# In short: as §1
# Gal(b1-4)GlcNAc = target: Gal(b1-4)GlcNAc
# In short: as §1
# [14] = target: Gal(b1-4)GlcNAc(a1-6)Gal(b1-4)GlcNAc
# In short: as §1
# Gal(b1-4)GlcNAc(b1-2)Man = target: Gal(b1-4)GlcNAc(b1-2)Man
# In short: as §1
# [15] = target: Gal(b1-4)GlcNAc(b1-2)Man(a1-3)Man(b1-4)GlcNAc(b1-4)GlcNAc
# In short: as §1
# [16] = target: Gal(b1-4)GlcNAc(b1-2)Man(a1-3)[Gal(b1-4)GlcNAc(b1-2)Man(a1-6)]Man(b1-4)GlcNAc(b1-4)GlcNAc
# In short: as §1
# [17] = target: Gal(b1-4)GlcNAc(b1-2)Man(a1-3)[Gal(b1-4)GlcNAc(b1-2)Man(a1-6)]Man(b1-4)GlcNAc(b1-4)[Fuc(a1-6)]GlcNAc
# In short: as §1
# [18] = target: Gal(b1-4)GlcNAc(b1-2)Man(a1-3)[Gal(b1-4)GlcNAc(b1-2)Man(a1-6)][Gal(b1-4)GlcNAc(b1-4)]Man(b1-4)GlcNAc(b1-4)[Fuc(a1-6)]GlcNAc
# In short: as §1
# [19] = target: Gal(b1-4)GlcNAc(b1-2)Man(a1-3)[Gal(b1-4)GlcNAc(b1-2)Man(a1-6)][GlcNAc(b1-4)]Man(b1-4)GlcNAc(b1-4)[Fuc(a1-6)]GlcNAc
# In short: as §1
# [20] = target: Gal(b1-4)GlcNAc(b1-2)Man(a1-3)[GlcNAc(b1-2)Man(a1-6)]Man(b1-4)GlcNAc(b1-4)GlcNAc
# In short: as §1
# [21] = target: Gal(b1-4)GlcNAc(b1-2)Man(a1-3)[GlcNAc(b1-4)][Gal(b1-4)GlcNAc(b1-2)Man(a1-6)]Man(b1-4)GlcNAc(b1-4)GlcNAc
# In short: as §1
# [22] = target: Gal(b1-4)GlcNAc(b1-2)Man(a1-3)[Man(a1-6)]Man(b1-4)GlcNAc(b1-4)GlcNAc
# In short: as §1
# [23] = target: Gal(b1-4)GlcNAc(b1-2)Man(a1-6)Man(b1-4)GlcNAc(b1-4)GlcNAc
# In short: as §1
# [24] = target: Gal(b1-4)GlcNAc(b1-2)Man(a1-6)[GlcNAc(b1-2)Man(a1-3)]Man(b1-4)GlcNAc(b1-4)GlcNAc
# In short: as §1
# [25] = target: Gal(b1-4)GlcNAc(b1-2)Man(a1-6)[Man(a1-3)]Man(b1-4)GlcNAc(b1-4)GlcNAc
# In short: as §1
# [26] = target: Gal(b1-4)GlcNAc(b1-2)[Gal(b1-4)GlcNAc(b1-4)]Man(a1-3)[Gal(b1-4)GlcNAc(b1-2)Man(a1-6)]Man(b1-4)GlcNAc(b1-4)GlcNAc
# In short: as §1
# [27] = target: Gal(b1-4)GlcNAc(b1-2)[Gal(b1-4)GlcNAc(b1-4)]Man(a1-3)[Gal(b1-4)GlcNAc(b1-2)[Gal(b1-4)GlcNAc(b1-6)]Man(a1-6)]Man(b1-4)GlcNAc(b1-4)GlcNAc
# In short: as §1
# [28] = target: Gal(b1-4)GlcNAc(b1-2)[Gal(b1-4)GlcNAc(b1-4)]Man(a1-3)[GlcNAc(b1-4)][Gal(b1-4)GlcNAc(b1-2)Man(a1-6)]Man(b1-4)GlcNAc(b1-4)GlcNAc
# In short: as §1
# [29] = target: Gal(b1-4)GlcNAc(b1-2)[Gal(b1-4)GlcNAc(b1-4)]Man(a1-3)[GlcNAc(b1-4)][Gal(b1-4)GlcNAc(b1-2)[Gal(b1-4)GlcNAc(b1-6)]Man(a1-6)]Man(b1-4)GlcNAc(b1-4)GlcNAc
# In short: as §1
# [30] = target: Gal(b1-4)GlcNAc(b1-2)[Gal(b1-4)GlcNAc(b1-6)]Man(a1-6)[Gal(b1-4)GlcNAc(b1-2)Man(a1-3)]Man(b1-4)GlcNAc(b1-4)GlcNAc
# In short: as §1
# [31] = target: Gal(b1-4)GlcNAc(b1-2)[Gal(b1-4)GlcNAc(b1-6)]Man(a1-6)[Gal(b1-4)GlcNAc(b1-2)Man(a1-3)]Man(b1-4)GlcNAc(b1-4)[Fuc(a1-6)]GlcNAc
# In short: as §1
binder,measurement,setting,value
B1,glycan array binding signal (z-score),[1],-0.241
same,glycan array binding signal (z-score),Gal(b1-3)GlcNAc6S,-0.243
same,glycan array binding signal (z-score),[2],-0.307
same,glycan array binding signal (z-score),[3],-0.255
same,glycan array binding signal (z-score),[4],-0.272
same,glycan array binding signal (z-score),[5],-0.235
same,glycan array binding signal (z-score),[6],-0.263
same,glycan array binding signal (z-score),[7],4.48
same,glycan array binding signal (z-score),[8],-0.38
same,glycan array binding signal (z-score),[9],-0.148
same,glycan array binding signal (z-score),[10],-0.276
same,glycan array binding signal (z-score),[11],-0.38
same,glycan array binding signal (z-score),Gal(b1-4)Gal,0.034
same,glycan array binding signal (z-score),[12],-0.37
same,glycan array binding signal (z-score),[13],-0.345
same,glycan array binding signal (z-score),Gal(b1-4)Glc,-0.33
same,glycan array binding signal (z-score),Gal(b1-4)Glc6S,-0.083
same,glycan array binding signal (z-score),Gal(b1-4)GlcNAc,-0.302
same,glycan array binding signal (z-score),[14],-0.357
same,glycan array binding signal (z-score),Gal(b1-4)GlcNAc(b1-2)Man,-0.225
same,glycan array binding signal (z-score),[15],-0.302
same,glycan array binding signal (z-score),[16],-0.219
same,glycan array binding signal (z-score),[17],0.006
same,glycan array binding signal (z-score),[18],-0.016
same,glycan array binding signal (z-score),[19],-0.366
same,glycan array binding signal (z-score),[20],-0.17
same,glycan array binding signal (z-score),[21],0.131
same,glycan array binding signal (z-score),[22],-0.244
same,glycan array binding signal (z-score),[23],-0.199
same,glycan array binding signal (z-score),[24],-0.241
same,glycan array binding signal (z-score),[25],4.25
same,glycan array binding signal (z-score),[26],-0.186
same,glycan array binding signal (z-score),[27],-0.285
same,glycan array binding signal (z-score),[28],1.28
same,glycan array binding signal (z-score),[29],-0.05
same,glycan array binding signal (z-score),[30],-0.322
same,glycan array binding signal (z-score),[31],0.627
